Measured values published in article PMC12040169 (PLOS Biology, 2025).
This is one part of the list.

These compounds were tested on T1, C. trachomatis L2/434/Bu expressing GFP (CTL2-GFP). Conditions: total inclusion area; 28.5 h, 10 µM; inhibitor.
T1 construct: L2/434/Bu GFP intracellular growth in HeLa cells
Set-up: species or system HeLa; C. trachomatis total inclusion area by high-content imaging, normalised to DMSO
Summary of the method: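 High-content images of fixed, Hoechst-stained infected cultures supply inclusion area and count (growth) plus nuclei number (viability), complementing bulk GFP/resorufin fluorescence. MIC determination is unchanged from the primary assay.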

Compound | % of control remaining
O=C1N=C(NCc2ccccc2F)OC12CCN(Cc1ccccc1)CC2 [CBK115688] | 98.0682
COc1cccc(CCN2C(=O)CC3(C2=O)C(=O)N(C)c2ccc(OC)cc23)c1 (stereo not drawn) [CBK075191] | 106.159
CCCCCn1c(=O)c(Cc2ccccc2)c(O)c2ccccc21 [CBK291233] | 107.47
CC(=O)N1CCC(NC(=O)c2cccc(C(N)=O)c2)CC1 [CBK297747] | 69.204
C=C(C)Cn1c(Cc2ccccc2)nnc1SC(C)C [CBK200083] | 76.7661
O=C1NCC2(C/C=C/CCOc3ccccc31)CCNCC2 [CBK292178] | 106.958
O=C(CCn1c(=O)oc2ccccc21)Nc1ccncc1 [CBK287466] | 85.4187
O=C(NCc1nnc(-c2cccs2)o1)c1cccc2ccccc12 [CBK284636] | 79.815
Nc1nnnn1CC(=O)N/N=C/c1cc2c(cc1[N+](=O)[O-])OCO2 [CBK262187] | 98.0575
Clc1ccc(C2(N3CCC(N4CCOCC4)CC3)CC2)cc1 [CBK282722] | 108.132
COc1ccc(CNC(=O)CN2CCCCC2Cn2cccn2)cc1 (stereo not drawn) [CBK305379] | 86.2326
COc1ccc(NC(=O)CSc2nc(O)cc(=O)[nH]2)cc1 [CBK261747] | 90.8324
O=C(NCc1nnc(-c2cccs2)o1)C(c1ccccc1)c1ccccc1 [CBK286294] | 91.3179
CN(C)CC(C)(C)CNC(=O)c1ccccc1-n1cccc1 [CBK149600] | 105.725
CCn1cc(C(=O)O)c(=O)c2cc(F)c(N3CCN(S(=O)(=O)c4ccc(C)cc4)CC3)cc21 [CBK265122] | 134.634
Cc1ccc(C2(C(=O)NC(C)c3ccccn3)CCOCC2)cc1 (stereo not drawn) [CBK281903] | 71.9554
O=C(O)c1cc(C=Cc2cn(Cc3ccccc3)nc2-c2cccnc2)nc2ccccc12 [CBK296988] | 111.747
COc1cc(CNc2cc(-c3ccco3)ncn2)cc(OC)c1OC [CBK091181] | 107.084
CN(C)Cc1nc(C(=O)N2CCn3nc(C(O)C4CC4)cc3C2)cs1 (stereo not drawn) [CBK307489] | 95.1213
Nc1ccccc1Sc1nc2ccccc2nc1C(F)(F)F [CBK093776] | 121.492
O=S(=O)(c1cccs1)n1ccc2c(CN3CCCC3)cccc21 [CBK116195T] | 83.924
COCC(=O)NC(Cc1ccsc1)c1nc(C)c(C)s1 (stereo not drawn) [CBK284773] | 117.195
O=C(O)COc1ccc(S(=O)(=O)N2CCc3ccccc32)cc1 [CBK269882] | 63.4893
CC(=O)NCc1ccc(-c2ccc(C(=O)NCc3ccc4[nH]c(C)c(C)c4c3)c(C)n2)cc1 [CBK285888] | 140.571
Cc1cc(=O)c2ccccc2n1CC(=O)N1CCOC2(CCCC2)C1 [CBK306811] | 44.0097
O=C1CC(c2ccc(C(=O)O)cc2)c2c(-c3ccc(Cl)cc3)n[nH]c2N1 (stereo not drawn) [CBK286684] | 73.7005

Compound | % of control remaining
CC(=O)Nc1ccc(CNC(=O)CN(C)Cc2cccc(O)c2)cc1 [CBK307660] | 75.5764
CSCCC(C(=O)O)N1C(=O)C(=Cc2ccc(-c3cccc(Cl)c3)o2)SC1=S (stereo not drawn) [CBK296982] | 117.943
OCCN(Cc1ccccc1)Cc1ccc(-c2ccccc2)cc1 [CBK261883] | 98.6461
FC(F)(F)c1ccnc(Sc2cccc(Cl)c2)c1 [CBK115234] | 98.1106
COCCN(C)c1ccc(C(=O)N2CCC(N3CCOCC3)CC2)cn1 [CBK306851] | 81.2389
CC1(C)[C@H](Cc2cc(CC3CCCCC3)on2)C[C@@H]1NC(=O)N1CCOCC1 [CBK289258] | 92.4128
CC(C)(C)CC(C)(C)NC(=S)Nc1ccc2nc(-c3ccccn3)c(-c3ccccn3)nc2c1 [CBK265118] | 34.8271
COc1ccc(C(=O)N2CCC3(CCCN(C(=O)c4ccc5ncccc5c4)C3)C2)cc1OC (stereo not drawn) [CBK131656] | 96.8515
Cc1nc(C(F)(F)F)ccc1C(=O)Nc1nc(CC(N)=O)cs1 [CBK305776] | 80.3818
Clc1ccc(CN2CCCN(c3nccc(OCC4COc5ccccc5O4)n3)CC2)cc1Cl (stereo not drawn) [CBK083967] | 65.1325
Cc1ccccc1OCC(O)CN1CCCC(C(F)(F)F)C1 (stereo not drawn) [CBK304873] | 71.4627
Nc1ccccc1CC(c1c[nH]c2ccccc12)c1c[nH]c2ccccc12 [CBK261780] | 76.8285
COc1ccc(N(CC(=O)Nc2cccnc2)S(=O)(=O)c2ccccc2)cc1 [CBK262236] | 65.4175
O=S1(=O)N=C(c2cccs2)C=C(C(F)(F)F)N1 [CBK019309] | 56.0268
O=[N+]([O-])c1ccc(N2CCN(Cc3c(O)ccc4ccccc34)CC2)cc1NCc1ccccc1 [CBK268408] | 76.5401
O=C(Nc1ccncc1)c1ccc(CNS(=O)(=O)c2cccc(C(F)(F)F)c2)cc1 [CBK267181] | 112.56
CCNC(=O)N1C[C@@H]2OCC(=O)N(Cc3cccnc3)[C@@H]2C1 [CBK289682] | 108.477
NS(=O)(=O)c1ccc(CNC2CC(=O)N(CCc3ccccc3)C2=O)cc1 (stereo not drawn) [CBK262464] | 94.3745
CCOC(=O)C1=C(c2ccccc2)Nc2ncnn2C1c1cccc(OC)c1OC (stereo not drawn) [CBK266353] | 118.997
COc1ccc(NC(=O)c2ccc(N3CCN(Cc4ccccc4)CC3)c([N+](=O)[O-])c2)cc1 [CBK263260] | 81.2825
Cc1c(F)cccc1CN1CCCN(S(=O)(=O)c2ccc(-c3ccccc3)cc2)CC1 [CBK062977] | 89.3141
O=C(c1ccc(Cl)cc1)N1CCN(C(=O)c2cc(O)nc3ccccc23)CC1 [CBK296666] | 78.4338
O=C(Cc1nc2ccccc2[nH]1)N1CCOCC1 [CBK019505] | 109.347
CN(C(=O)c1cccnc1)C(CC1CCCCC1)C1CCCCC1 (stereo not drawn) [CBK015849] | 88.3764
Cc1ccc(OCc2nnc(SCc3cccc(C#N)c3)n2Cc2ccccc2)cc1C [CBK266065] | 125.405
CC(OC(=O)Cc1ccccc1[N+](=O)[O-])c1nnnn1-c1ccccc1 (stereo not drawn) [CBK297920] | 86.3547

Compound | % of control remaining
CN(Cc1ccc(Br)cc1)C(=O)CNS(=O)(=O)c1cnn(C)c1 [CBK304553] | 66.4167
Cc1ccc(C(=O)NNCc2ccccc2)c(NCc2cccnc2)n1 [CBK076369] | 103.525
CN(CCc1ccccn1)C(=O)C1CN(C(=O)C2CC23CCC3)C1 (stereo not drawn) [CBK281969] | 61.1372
Cc1cc(=O)oc2cc(NC(=S)NNC(=O)C(C)Oc3ccc4c(c3)CCC4)ccc12 (stereo not drawn) [CBK267031] | 122.805
COC(=O)CC1CCC(NC(=O)C(F)(F)F)CC1 (stereo not drawn) [CBK009129] | 35.9881
Cc1ccc(C(=O)O)cc1NC(=O)CSc1nc2scc(C3CC3)c2c(=O)n1-c1ccccc1 [CBK297481] | 102.23
Cc1ccc(C2CCCN2C(=O)Cn2cc(C(=O)NCc3ccccc3)ccc2=O)cc1C (stereo not drawn) [CBK286051] | 119.322
CSc1nnc(CCCNc2cccc(C#N)n2)n1CC(C)C [CBK306449] | 74.9988
O=C(Cc1ccccc1)N1CCN(S(=O)(=O)N2CCOCC2)CC1 [CBK268857] | 116.67
COc1ccc(/C=C2\SC(Nc3ccc(Cl)c(C(=O)O)c3)=NC2=O)cc1C [CBK067743] | 94.2384
COc1ccc(C(=O)COC(=O)c2cccc(N3C(=O)C4C5C=C(C)C(C5)C4C3=O)c2)cc1 (stereo not drawn) [CBK264808] | 110.113
Cc1c(C(=O)NCC[S+](C)[O-])oc2c(C)cccc12 (stereo not drawn) [CBK282511] | 102.763
CS(=O)(=O)NC1CCCN(c2nc(-c3ccsc3)nc3ccccc23)C1 (stereo not drawn) [CBK305623] | 74.7694
CCOC(=O)c1c(NC(=O)CN2CC(C)OC(C)C2)sc2c1CCC(C)C2 (stereo not drawn) [CBK264572] | 100.016
COc1ccc(NC(=O)c2c[nH]c3nc(C)ccc3c2=O)cc1 [CBK287816] | 114.757
CC(=O)N1CCc2nc(C)nc(NCCn3cccc3)c2CC1 [CBK307130] | 84.1233
Cn1c(=O)[nH]c(=O)c2cnc(-c3ccc(Cl)cc3)nc21 [CBK291208] | 53.4256
COc1cc(NC(=O)c2nn3c(c2Br)NC(c2cccs2)CC3C(F)(F)F)c(OC)cc1Cl (stereo not drawn) [CBK263573] | 121.473
CSc1[nH]nc(-c2ccc(C(C)(C)C)cc2)c1C#N [CBK016999] | 17.3232
CC(C)CC(=O)N1CCN(Cc2nc3sc4c(c3c(=O)[nH]2)CCC4)CC1 [CBK305014] | 54.3676
CCn1nc(C)c(-c2cncn2CCCC(C)(C)CO)c1C [CBK281807] | 89.5256
c1ccc(C(Oc2nccnc2-c2ccsc2)c2ccccc2)cc1 [CBK106765] | 109.056
COc1ccc(Cn2c(=O)n(S(=O)(=O)c3cccc(-c4nnc(C)o4)c3)c3ccccc32)cc1 [CBK106558] | 97.6894
O=C1NC(=O)C(CCCCN2CCCC3(CCN(C(=O)c4cc(F)c(F)cc4F)C3)C2)N1 (stereo not drawn) [CBK132020] | 102.609
c1coc(CNc2ncc(-c3ccc4c(c3)OCO4)c(-c3cccs3)n2)c1 [CBK286414] | 91.9534
CCC(c1ccc(F)cc1)n1cncc1-c1cnn(C)c1 (stereo not drawn) [CBK281883] | 76.5174
